Experimental data from PubChem BioAssay AID328 (DTP/NCI, 2004).
Toxic doses and inconclusive results are not listed. A number of entries come with more than one value. This list holds those alone. An entry can have further records. The records of an entry differ for a reason that is not stated; some may be repeats, others may stem from another dose, organism or construct than stated.

Tested on: BDF1 mice, P388 leukemia ip, median survival T/C
Test: NCI In Vivo Anticancer Drug Screen. Data for tumor model P388 Leukemia (intraperitoneal) in B6D2F1 (BDF1) mice
Conditions: endpoint: median survival time, higher = longer survival
Summary of the method: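 Transplantable tumour in mice; compound vs vehicle dosing; survival scored; ratio of treated to control reported.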

SMILES: C=CCSc1nc(N)nc2c1ncn2C1CC(O)C(CO)O1 (configuration not stated)
- T/C (dose: 200.0 mg/kg/injection, schedule: Q01DX009 (ip), vehicle: saline): 118 % of control and 152 % of control

SMILES: COc1cccc2c1C(=O)c1c(O)c3c(c(O)c1C2=O)C[C@@](O)(/C(CO)=N/NC(=O)c1ccc(Cl)c(Cl)c1)C[C@@H]3OC1CC(N)C(O)C(C)O1 (some centres not stated)
- T/C (dose: 1.56 mg/kg/injection, schedule: Q01DX009 (ip), vehicle: water): 96 % of control and 191 % of control
- T/C (dose: 12.5 mg/kg/injection, schedule: Q01DX009 (ip), vehicle: water): 106 % of control and 182 % of control

SMILES: CC[C@](O)(C(=O)O)c1cc2n(c(=O)c1CO)Cc1cc3ccccc3nc1-2
- T/C (dose: 75.0 mg/kg/injection, schedule: Q01DX001 (ip), vehicle: saline): 60 % of control and 168 % of control

SMILES: COc1cc2c(cc1OC)C(OC)N(C)c1c-2ccc2cc3c(cc12)OCO3 (configuration not stated)
- T/C (dose: 80.0 mg/kg/injection, schedule: Q01DX009 (ip), vehicle: saline with Tween-80): 118 % of control and 165 % of control
- T/C (dose: 120.0 mg/kg/injection, schedule: Q01DX009 (ip), vehicle: saline with Tween-80): 86 % of control and 175 % of control

SMILES: COc1cc([C@@H]2c3cc4c(cc3[C@@H](OC3OC5COC(C)OC5C(O)C3O)[C@H]3COC(=O)[C@H]23)OCO4)cc(OC)c1O (some centres not stated)
- T/C (dose: 20.0 mg/kg/injection, schedule: Q04DX003 (ip), vehicle: saline): 112 % of control and 200 % of control
- T/C (dose: 24.0 mg/kg/injection, schedule: Q04DX003 (ip), vehicle: saline): 112 % of control and 200 % of control

SMILES: COc1cccc2c1C(=O)c1c(O)c3c(c(O)c1C2=O)C[C@@](O)(C(C)=O)C[C@@H]3OC1CC(N)C(O)C(C)O1 (some centres not stated)
- T/C (dose: 0.39 mg/kg/injection, schedule: Q01DX009 (ip), vehicle: water): 117 % of control and 153 % of control
- T/C (dose: 0.78 mg/kg/injection, schedule: Q01DX009 (ip), vehicle: water): 112 % of control and 177 % of control

SMILES: CC(CN1CC(=O)NC(=O)C1)N1CC(=O)NC(=O)C1 (configuration not stated)
- T/C (dose: 100.0 mg/kg/injection, schedule: Q04DX003 (ip), vehicle: Klucel (hydroxypropylcellulose) (HPC)): 123 % of control and 151 % of control
- T/C (dose: 800.0 mg/kg/injection, schedule: Q04DX003 (ip), vehicle: Klucel (hydroxypropylcellulose) (HPC)): 86 % of control and 159 % of control
